# Data from the supplement of paper PMC8728848.
# The other results are listed elsewhere or left out.
# B1: F17dG (Escherichia coli), Q47199 (protein)
# chain: MTNFYKVFLAVFILVCCNISQAAVSFIGSTENDVGPSPGSYSRTHAMDNLPFVYNTGNNIGYQNANVWRISKGFCVGLDGKVDLPVVGSLDGQSIYGLTEEVGLLIWMGDTNYSRGTAMSGNSWENVFSGWCVGANTASTQGLSVRVTPVILKRNSSARYSVQKTSIGSIRMRPYNGSSAGSVQTTVNFSLNPFTLNDTVTSCRLLTPSAVNVSLAAISAGQLPSSGDEVVAGTTSLKLQCDAGVTVWATLTDATTPSNRSDILTLTGASTATGVGLRIYKNTDSTPLKFGPDSPVKGNENQWQLSTGTETSPSVRLYVKYVNTGEGINPGTVNGISTFTFSYQ
# What was measured:
# Experiment in all cases: glycan array binding signal (z-score within array); higher = stronger binding
# Conditions in all cases: glycan notation: IUPAC condensed, linker removed
# [1] = biological target: Neu5Ac(a2-8)Neu5Ac(a2-3)[GalNAc(b1-4)]Gal(b1-4)Glc
# Summary of the method: (§1)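 Glycan array data were curated from 3228 arrays in the Consortium for Functional Glycomics database and kept only where the protein sequence was available. Glycan names were converted to IUPAC-condensed notation, and columns mapping to the same glycan were averaged. The binding signal is a within-array Z-score, averaged across arrays of the same protein sequence at different concentrations or buffers and across linkers. Negative Z-scores can be read as non-binding.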
# [2] = biological target: Neu5Ac(a2-8)Neu5Ac(a2-8)Neu5Ac
# Summary of the method: as §1
# [3] = biological target: Neu5Ac(a2-8)Neu5Ac(a2-8)Neu5Ac(a2-3)Gal(b1-4)Glc
# Summary of the method: as §1
# [4] = biological target: Neu5Ac(a2-8)Neu5Ac(a2-8)Neu5Ac(a2-3)[GalNAc(b1-4)]Gal(b1-4)Glc
# Summary of the method: as §1
# [5] = biological target: Neu5Ac(a2-8)Neu5Ac(a2-8)Neu5Ac(a2-8)Neu5Ac(a2-3)[GalNAc(b1-4)]Gal(b1-4)Glc
# Summary of the method: as §1
# [6] = biological target: Neu5Ac(b1-6)GalNAc
# Summary of the method: as §1
# [7] = biological target: Neu5Ac(b2-6)Gal(b1-4)GlcNAc
# Summary of the method: as §1
# [8] = biological target: Neu5Ac9Ac(a2-6)Gal(b1-4)GlcNAc
# Summary of the method: as §1
# [9] = biological target: Neu5Gc(a2-3)Gal(b1-3)GlcNAc
# Summary of the method: as §1
# [10] = biological target: Neu5Gc(a2-3)Gal(b1-3)[Fuc(a1-4)]GlcNAc
# Summary of the method: as §1
# [11] = biological target: Neu5Gc(a2-3)Gal(b1-4)Glc
# Summary of the method: as §1
# [12] = biological target: Neu5Gc(a2-3)Gal(b1-4)GlcNAc
# Summary of the method: as §1
# [13] = biological target: Neu5Gc(a2-3)Gal(b1-4)[Fuc(a1-3)]GlcNAc
# Summary of the method: as §1
# [14] = biological target: Neu5Gc(a2-6)Gal(b1-4)GlcNAc
# Summary of the method: as §1
# [15] = biological target: Neu5Gc(a2-6)GalNAc
# Summary of the method: as §1
binder,measurement,setting,value
B1,glycan array binding signal (z-score),[1],-0.188
same,glycan array binding signal (z-score),[2],-0.322
same,glycan array binding signal (z-score),[3],-0.315
same,glycan array binding signal (z-score),[4],-0.196
same,glycan array binding signal (z-score),[5],-0.374
same,glycan array binding signal (z-score),[6],-0.363
same,glycan array binding signal (z-score),[7],-0.161
same,glycan array binding signal (z-score),[8],-0.234
same,glycan array binding signal (z-score),[9],0.454
same,glycan array binding signal (z-score),[10],-0.319
same,glycan array binding signal (z-score),[11],-0.327
same,glycan array binding signal (z-score),[12],0.103
same,glycan array binding signal (z-score),[13],-0.355
same,glycan array binding signal (z-score),[14],-0.339
same,glycan array binding signal (z-score),[15],-0.341
